Reference: PubChem BioAssay (NCI)
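How tested: cells in 96-well plates exposed to compound for 48 hours at five concentrations. Abbreviation: GI50, concentration required for 50% inhibition of growth. TGI denotes the concentration required for complete inhibition of growth.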

Test system: NCI-H322M lung
Experiment: growth of human tumour cells (NCI), 48 h

For CCCCSc1nc(Nc2ccc(/C(C)=N/NC(N)=S)cc2)c(C#N)c(-c2ccc(F)cc2)n1, the GI50 was 2.5 µM and the TGI was 16.8 µM.
CS(=O)(=O)Nc1cncc(-c2ccc3ncnc(NCc4ccccc4)c3c2)c1 gave a GI50 of 12 µM and a TGI of 26.8 µM.
COc1ccccc1[C@H]1C(C(=O)c2ccc(O)cc2)C2(N[C@@H]1c1ccccc1)C(=O)Nc1ccc(Br)cc12 (some centres not stated) gave a GI50 of 7.1 µM and a TGI of 14.2 µM.
Compound Cc1ccc(-c2cc(C(=O)N=Nc3c(O)[nH]c4ccccc34)c3ccccc3n2)cc1 has a GI50 of 4.95 µM and a TGI of 27.1 µM.
C/C(=N\N=C1/C(=O)Nc2ccc(Cl)cc21)c1ccc2c(c1)Nc1ccccc1S2 was tested, and the GI50 was 12.5 µM and the TGI was 43.2 µM.
With COc1ccc2ccccc2c1/C=C1\SC(=Nc2ccc(O)cc2)NC1=O the GI50 was 2.15 µM and the TGI was 15.9 µM.
